Data as given in PubChem BioAssay AID624417 (National Center for Advancing Translational Sciences (NCATS), 2012).
The campaign covered roughly 410,000 compounds. About 6,400 (1.6%) were called active. The inconclusive results got no clear call from the source; some entries with a clear call stand among them for comparison. Calls follow the shape of the dose curve; as a rule, active = well fitted inhibition curve with a large enough effect; inconclusive = small, poorly fitted or top-dose-only effect; inactive = no such curve, though single readings can be large or run the other way. No potency is given beside an inconclusive call; the fits are too rough.

Target: Glucagon-like peptide 1 receptor (Homo sapiens) (UniProt P43220)
Chain of UniProt P43220 (P43220 whole entry, looked up): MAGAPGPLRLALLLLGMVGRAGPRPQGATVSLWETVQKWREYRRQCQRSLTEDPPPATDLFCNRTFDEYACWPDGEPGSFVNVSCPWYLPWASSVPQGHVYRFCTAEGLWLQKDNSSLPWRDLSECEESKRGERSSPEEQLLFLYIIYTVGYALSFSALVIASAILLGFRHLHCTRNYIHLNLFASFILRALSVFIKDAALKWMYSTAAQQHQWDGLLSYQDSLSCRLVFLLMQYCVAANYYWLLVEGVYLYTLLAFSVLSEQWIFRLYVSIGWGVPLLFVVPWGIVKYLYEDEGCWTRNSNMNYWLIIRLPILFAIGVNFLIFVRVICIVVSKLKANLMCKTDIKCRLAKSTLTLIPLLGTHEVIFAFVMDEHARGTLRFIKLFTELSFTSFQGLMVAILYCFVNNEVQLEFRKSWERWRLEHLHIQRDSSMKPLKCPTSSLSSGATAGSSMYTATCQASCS
Assay: qHTS of GLP-1 Receptor Inverse Agonists (Inhibition Mode); also: nearly all actives have a fitted effect of over 55% in size
Details: HEK293 GLP-1R CRE-luciferase, luminescence, 24 h, GLP-1R form is constitutively active; series mostly up to 38.3 µM
Summary of the method: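 Cells are plated, allowed 12 hours at 37 deg C, then treated with compounds for 24 hr before luciferase detection reagent is added and luminescence is read after 12 min at room temperature. The HEK293 line carries constitutively active GLP-1R with a cAMP-responsive reporter.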
Potency is read from the fitted curve at half-maximal effect; tags tell the direction and shape of the fitted curve.

**Q.** With `Nc1nc(N)nc(-c2cc(O)ccc2O)n1` as the molecule, how does the Potency read?
**A.** inconclusive [inhibitor, full curve, poor fit]

**Q.** `COc1ccccc1N1CCN(C(=O)CN2C(=O)c3ccccc3S2(=O)=O)CC1` was tested. Which Potency did it give?
**A.** inconclusive [inhibitor, partial curve, poor fit]

**Q.** With `COc1cc(-c2cc(N)n(S(=O)(=O)c3ccc(F)cc3)n2)cc(OC)c1OC` as the molecule, how does the Potency read?
**A.** inconclusive [inhibitor, single point]

**Q.** How did the Potency turn out when `O=C1S/C(=C\c2ccc(N3CCOCC3)o2)C(=O)N1c1ccccc1` was run?
**A.** inactive

**Q.** Which Potency does the source give for `CC(C)C(c1nnnn1Cc1ccccc1)N1CCN(Cc2ccco2)CC1` (stereo unspecified) here?
**A.** inconclusive [inhibitor, single point]

**Q.** How did the Potency turn out when `CC(C)CCn1c(Oc2ccccc2Cl)nc2c1c(=O)n(C)c(=O)n2C` was run?
**A.** inconclusive [inhibitor, single point]

**Q.** `Cc1cc(C(=O)OCn2nnc3ccccc3c2=O)c(C)n1-c1ccccc1` was tested. Which Potency did it give?
**A.** inconclusive [inhibitor, single point]

**Q.** Which Potency does the source give for `Cc1ccc2c(c1)N(C(=O)CCC(=O)NCCCN(C)Cc1ccccc1)CCO2` here?
**A.** inconclusive [inhibitor, partial curve, poor fit]

**Q.** How did the Potency turn out when `CCOc1ccccc1NC(=O)Cn1nnc(C(=O)Nc2ccc(C)cc2)c1N` was run?
**A.** inconclusive [inhibitor, partial curve, poor fit]

**Q.** For `O=c1[nH]c(C2CCN(S(=O)(=O)c3cccc(Cl)c3)CC2)nc2c1nnn2Cc1ccccc1`, which Potency is on record?
**A.** inconclusive [inhibitor, single point]

**Q.** For `COc1ccc(NC(=O)CSc2nnc(-c3ccccc3Cl)n2Cc2ccco2)c(OC)c1`, which Potency is on record?
**A.** active: 7.08 µM

**Q.** For `CCOc1ccc(NC(=O)CN(C)C(=O)c2cc([N+](=O)[O-])ccc2Sc2ccccc2)cc1OCC`, which Potency is on record?
**A.** inconclusive [inhibitor, partial curve, poor fit]

**Q.** With `CC1=CC(C)(C)N(S(=O)(=O)c2ccc(F)cc2)c2ccccc21` as the molecule, how does the Potency read?
**A.** inconclusive [inhibitor, partial curve, poor fit]

**Q.** `COc1ccc2c(c1)c1nc3ccccc3nc1n2Cc1ccc(OC)c(OC)c1` was tested. Which Potency did it give?
**A.** inactive

**Q.** How did the Potency turn out when `O=C(/C=C/c1ccccc1)NNc1ccc(Cl)cc1` was run?
**A.** inconclusive [inhibitor, single point]

**Q.** How did the Potency turn out when `O=C(Nc1ccc2c(c1)OCO2)C1CCN(C(=O)c2ccc(Br)cc2)CC1` was run?
**A.** inconclusive [inhibitor, single point]

**Q.** With `Cc1ccccc1C(=O)Nc1ccc(OCc2cc(=O)n3cccc(C)c3n2)cc1` as the molecule, how does the Potency read?
**A.** inactive

**Q.** `O=C(O)CC(NC(=S)NCc1ccccc1)C(=O)O` (stereo unspecified) was tested. Which Potency did it give?
**A.** inconclusive [inhibitor, partial curve, poor fit]

**Q.** `O=C1COc2cc(S(=O)(=O)NCc3ccco3)c(Cl)cc2N1` was tested. Which Potency did it give?
**A.** inactive

**Q.** For `CCc1noc(C)c1C(=O)Nc1nc(-c2cccs2)cs1`, which Potency is on record?
**A.** inconclusive [inhibitor, single point]

**Q.** `O=C(NCCCn1ccnc1)c1ccc2ccccc2c1` was tested. Which Potency did it give?
**A.** inactive

**Q.** Which Potency does the source give for `Cc1ccc(S(=O)(=O)N2C[C@H]3C(=O)C[C@@H](c4ccccc4)N(S(=O)(=O)c4ccc(C)cc4)[C@H]3C[C@H]2c2ccccc2F)cc1` here?
**A.** inconclusive [inhibitor, full curve, poor fit]

**Q.** `CC1CC(C)CN(C(=O)Nc2ccc(Br)cc2)C1` (stereo unspecified) was tested. Which Potency did it give?
**A.** inconclusive [inhibitor, single point]

**Q.** With `CCOc1ccccc1N1CC(C(=O)Nc2ccccc2N2CCCC2)CC1=O` (stereo unspecified) as the molecule, how does the Potency read?
**A.** inconclusive [inhibitor, single point]

**Q.** With `CSCCC(NS(=O)(=O)c1ccc(Cl)cc1)C(=O)OCC(=O)N(C(C)C)C(C)C` (stereo unspecified) as the molecule, how does the Potency read?
**A.** inconclusive [inhibitor, single point]

**Q.** With `CC(=O)c1cccc(OCc2cc(C(=O)N3CCC(N4CCCCC4)CC3)no2)c1` as the molecule, how does the Potency read?
**A.** inactive

**Q.** For `CCOC(=O)/C(C#N)=C1/C(=O)N(Cc2ccccc2)c2ccccc21`, which Potency is on record?
**A.** inconclusive [inhibitor, single point]

**Q.** How did the Potency turn out when `S=C(NCCSCc1ccc(Cl)cc1)Nc1ccccc1` was run?
**A.** inconclusive [inhibitor, partial curve, poor fit]

**Q.** For `CCOC(=O)C1CCN(c2nc3c(S(=O)(=O)c4ccccc4)nnn3c3ccsc23)CC1`, which Potency is on record?
**A.** inactive

**Q.** `C[C@H](CO)N1C[C@H](C)[C@@H](CN(C)Cc2ccc(-c3ccccc3)cc2)Oc2c(NS(=O)(=O)c3cn(C)cn3)cccc2C1=O` was tested. Which Potency did it give?
**A.** inactive

**Q.** How did the Potency turn out when `Cc1noc(C)c1COc1cccc(C(=O)Nc2ccc(Br)cc2F)c1` was run?
**A.** inconclusive [inhibitor, partial curve, poor fit]

**Q.** How did the Potency turn out when `O=C(Nc1ccncc1)Nc1cccc(C(F)(F)F)c1` was run?
**A.** active: 10 µM

**Q.** With `COc1ccc(Cl)cc1NC(=O)c1cccc([N+](=O)[O-])c1O` as the molecule, how does the Potency read?
**A.** inconclusive [inhibitor, single point]

**Q.** Which Potency does the source give for `CC(CCc1ccccc1)NCc1cccc2ccccc12` (stereo unspecified) here?
**A.** inconclusive [inhibitor, single point]

**Q.** `CN(C)C(=O)c1ccc(NC(=O)c2cccc(S(=O)(=O)N3CCCCCC3)c2)cc1` was tested. Which Potency did it give?
**A.** inconclusive [inhibitor, single point]

**Q.** `COc1ccc(CCN2CCC(Nc3nc4ccccc4n3Cc3ccc(F)cc3)CC2)cc1` was tested. Which Potency did it give?
**A.** inconclusive [inhibitor, partial curve, poor fit]

**Q.** For `CCC1(C)Cc2ccccc2-c2nc(NCCO)[nH]c(=O)c21` (stereo unspecified), which Potency is on record?
**A.** inconclusive [inhibitor, single point]

**Q.** With `CC1=Nc2cc(C(=O)NCC3CCCO3)ccc2Sc2ccc(Br)cc21` (stereo unspecified) as the molecule, how does the Potency read?
**A.** inconclusive [inhibitor, full curve]

**Q.** `CCOC(=O)C(C)Oc1cccc2c(=O)n(CC(=O)NCc3ccccc3)ccc12` (stereo unspecified) was tested. Which Potency did it give?
**A.** inconclusive [inhibitor, full curve, poor fit]

**Q.** Which Potency does the source give for `CCOc1ccc(/C(O)=C/C(=O)C(=O)Nc2ccc(S(=O)(=O)NC(C)=O)cc2)cc1` here?
**A.** inactive

**Q.** `O=C(CCC(=O)N1CCOc2ccc(Cl)cc21)NCCCN1CCN(c2ccccc2F)CC1` was tested. Which Potency did it give?
**A.** inconclusive [inhibitor, partial curve, poor fit]
